In the GPR68 mutational scans of Howard et al. (2025) one finds cAMP reporter score and surface expression score data, which are given here for 31 variants.

The labels stand for the following.
B1: GPR68, Q15743 (parent)
chain: MGNITADNSSMSCTIDHTIHQTLAPVVYVTVLVVGFPANCLSLYFGYLQIKARNELGVYLCNLTVADLFYICSLPFWLQYVLQHDNWSHGDLSCQVCGILLYENIYISVGFLCCISVDRYLAVAHPFRFHQFRTLKAAVGVSVVIWAKELLTSIYFLMHEEVIEDENQHRVCFEHYPIQAWQRAINYYRFLVGFLFPICLLLASYQGILRAVRRSHGTQKSRKDQIQRLVLSTVVIFLACFLPYHVLLLVRSVWEASCDFAKGVFNAYHFSLLLTSFNCVADPVLYCFVSETTHRDLARLRGACLAFLTCSRTGRAREAYPLGAPEASGKSGAQGEEPELLTKLHPAFQTPNSPGSGGFPTGRLA

In data set [1] the parent is B1. As to the kind of experiment: cAMP reporter score (Enrich2 score, wild type = 0); higher = more signal; HEK293T, FACS bins.
In data set [2] the parent is B1. As to the kind of experiment: surface expression score (Enrich2 score, wild type = 0); higher = more signal; HEK293T, FACS bins.

Scores whose standard error is large were omitted. Two further conditions of the source, in which the scores hardly spread, are not listed. In variant names, del marks residues removed and ins residues inserted between the two positions. For part of these data: The data file names ogerin without a concentration.

Take C97D: the cAMP reporter score is -1.97 in data set [1] (pH 5.5) and -1.89 in data set [1] (pH 6.5, modulator: ogerin). Moreover, the surface expression score in data set [2] was -1.5.
For the variant C97S, the cAMP reporter score is -0.605 in data set [1] (pH 5.5); -1.01 in data set [1] (pH 6, modulator: ogerin); -0.714 in data set [1] (pH 6.5, modulator: ogerin). In addition, the surface expression score in data set [2] amounted to 1.58.
Regarding C97H, the cAMP reporter score is -1.42 in data set [1] (pH 5.5); -0.356 in data set [1] (pH 6); -1.26 in data set [1] (pH 6, modulator: ogerin); -1.28 in data set [1] (pH 6.5, modulator: ogerin). In addition, the surface expression score in data set [2] turned out to be 1.95.
The corresponding values for C97F are -0.776, -0.345, -1.35, -1.5 and 0.935.
Consider C97Q, for which the cAMP reporter score was -1.59 in data set [1] (pH 5.5); -1.54 in data set [1] (pH 6); -1.98 in data set [1] (pH 6, modulator: ogerin); -1.42 in data set [1] (pH 6.5, modulator: ogerin). Further, the surface expression score in data set [2] is 0.422.
On to C97N, for which the cAMP reporter score in data set [1] (pH 5.5) was -0.89; in data set [1] (pH 6), -1.43; in data set [1] (pH 6, modulator: ogerin), -1.34; in data set [1] (pH 6.5, modulator: ogerin), -1.11. Moreover, in data set [2], the surface expression score is -0.426.
Take C97A: the cAMP reporter score in data set [1] (pH 5.5) was -1.19; in data set [1] (pH 6, modulator: ogerin), -0.922; in data set [1] (pH 6.5, modulator: ogerin) it was -1.03. Further, the surface expression score in data set [2] was 0.392.
In the case of C97W, the cAMP reporter score is -1.54 in data set [1] (pH 5.5); -1.02 in data set [1] (pH 6); -1.57 in data set [1] (pH 6, modulator: ogerin); -1.53 in data set [1] (pH 6.5, modulator: ogerin). In addition, in data set [2], the surface expression score was 1.36.
For C97R, the cAMP reporter score was -1.43 in data set [1] (pH 5.5); -0.408 in data set [1] (pH 6); -1.88 in data set [1] (pH 6, modulator: ogerin); -0.963 in data set [1] (pH 6.5, modulator: ogerin). In addition, the surface expression score in data set [2] is 0.569.
The corresponding values for C97T are -0.329, -0.179, -1.45, -0.679 and 1.24.
Turning to C97Y, the cAMP reporter score in data set [1] (pH 5.5) is -1.27; in data set [1] (pH 6), -0.855; in data set [1] (pH 6, modulator: ogerin), -1.61; in data set [1] (pH 6.5, modulator: ogerin), -1.57. Moreover, in data set [2], the surface expression score was 0.859.
On to C97G, for which the cAMP reporter score in data set [1] (pH 5.5) is -0.515; in data set [1] (pH 6), -0.355; in data set [1] (pH 6, modulator: ogerin) it was -0.441; in data set [1] (pH 6.5, modulator: ogerin), -0.654. In addition, the surface expression score in data set [2] worked out at 0.603.
Regarding C97L, the cAMP reporter score in data set [1] (pH 5.5) is -1.04; in data set [1] (pH 6), -0.896; in data set [1] (pH 6, modulator: ogerin), -1.43; in data set [1] (pH 6.5, modulator: ogerin), -0.798. Also, in data set [2], the surface expression score amounted to 1.08.
The corresponding values for C97I are -0.958, -0.679, -1.42, -0.569 and 0.474.
The corresponding values for C97K are -0.623, -0.458, -1.58, -0.52 and -0.291.
The corresponding values for C97E are -1.57, -1.47, -1.63, -0.776 and -1.59.
C97V: the cAMP reporter score in data set [1] (pH 5.5) was -0.287; in data set [1] (pH 6), -1.04; in data set [1] (pH 6, modulator: ogerin), -0.428; in data set [1] (pH 6.5, modulator: ogerin), -0.755. In data set [2], the surface expression score is 2.59.
The corresponding values for C97P are -1.72, -0.722, -0.883, -0.379 and 0.683.
Turning to Y102_E103insGS, the cAMP reporter score in data set [1] (pH 5.5) was -0.64; in data set [1] (pH 6) it was -1.9; in data set [1] (pH 6, modulator: ogerin) it was -2.83. For the same variant, the surface expression score in data set [2] is -2.59.
Regarding G90_D91del, the cAMP reporter score in data set [1] (pH 5.5) is -0.8; in data set [1] (pH 6), -0.405; in data set [1] (pH 6.5, modulator: ogerin), -1.14. In addition, in data set [2], the surface expression score worked out at 0.114.
With L92_C94del, the cAMP reporter score in data set [1] (pH 5.5) is -1.75; in data set [1] (pH 6) it was -0.656; in data set [1] (pH 6, modulator: ogerin), -1.25; in data set [1] (pH 6.5, modulator: ogerin), -1.19. Besides, the surface expression score in data set [2] was -2.
The corresponding values for L100_L101del are -1.46, -0.919, -1.2, -0.563 and -2.78.
The corresponding values for N104_I105insG are -0.65, -0.284, -1.31, -0.149 and -1.21.
Turning to S93del, the cAMP reporter score in data set [1] (pH 5.5) was -1.92; in data set [1] (pH 6), -0.855; in data set [1] (pH 6, modulator: ogerin), -2.12; in data set [1] (pH 6.5, modulator: ogerin) it was -1.71. Besides, the surface expression score in data set [2] is -1.85.
Turning to Y102_N104del, the cAMP reporter score was -1.24 in data set [1] (pH 5.5); -0.654 in data set [1] (pH 6); -1.65 in data set [1] (pH 6, modulator: ogerin); -1.22 in data set [1] (pH 6.5, modulator: ogerin). Also, in data set [2], the surface expression score is -2.2.
The corresponding values for D91del are -1.03, -0.476, -2.34, -0.16 and 0.994.
Regarding E103C, the cAMP reporter score in data set [1] (pH 5.5) was -0.011; in data set [1] (pH 6.5, modulator: ogerin) it was -1.14. Further, in data set [2], the surface expression score stood at 0.72.
Turning to E103N, the cAMP reporter score in data set [1] (pH 5.5) stood at 1.24; in data set [1] (pH 6) it was 2.71; in data set [1] (pH 6, modulator: ogerin), 1.03; in data set [1] (pH 6.5, modulator: ogerin), 2.41. For the same variant, the surface expression score in data set [2] amounted to 1.39.
For the variant E103D, the cAMP reporter score was -0.254 in data set [1] (pH 5.5); -0.224 in data set [1] (pH 6); -0.381 in data set [1] (pH 6, modulator: ogerin); -0.847 in data set [1] (pH 6.5, modulator: ogerin). In data set [2], the surface expression score was -1.
The corresponding values for E103S are -0.974, -1.04, -1.32, -1.27 and 0.73.
The corresponding values for E103K are 0.132, -0.767, -1.21, -0.786 and 1.71.
